Results reported in PMC12040169 (PLOS Biology, 2025).
The other results are listed elsewhere or left out.

test system: T1, C. trachomatis L2/434/Bu expressing GFP (CTL2-GFP); set-up: species or system HeLa; C. trachomatis total inclusion area by high-content imaging, normalised to DMSO; details: total inclusion area; 28.5 h, 10 µM; inhibitor
T1 construct: L2/434/Bu GFP intracellular growth in HeLa cells
How it was run: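 Bulk GFP and resorufin signals were read first. Wells were then fixed, stained with Hoechst and imaged to detect GFP inclusions and host nuclei. MICs followed the previously described calculation.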

| SMILES | % of control remaining |
| --- | --- |
| COc1ccc(Br)cc1S(=O)(=O)Nc1ccc(C(=O)O)cc1 [CBK034047] | 86.743 |
| O=[N+]([O-])c1cc(/C=N/Nc2nnn[nH]2)ccc1N1CCOCC1 [CBK262199] | 99.422 |
| O=C(Nc1cccnc1)c1cc(S(=O)(=O)N2CCCCC2)c(Cl)cc1Cl [CBK264567] | 92.7727 |
| Cc1noc(NS(=O)(=O)c2ccc(NC(=O)C3COc4ccccc4O3)cc2)c1C (centres unmarked) [CBK264923] | 85.6458 |
| COc1cc(/C=C/c2nc(O)c([N+](=O)[O-])c(=O)[nH]2)ccc1OCC(=O)N1CCOCC1 [CBK267168] | 113.271 |
| O=C(CSc1ccc(Cl)cc1)NNC(=O)c1cccc([N+](=O)[O-])c1 [CBK268384] | 93.9352 |
| S=c1ccc(N/N=C/C2CC=CCC2)n[nH]1 (centres unmarked) [CBK018655] | 91.695 |
| Cc1ccc(S(=O)(=O)N2CCCC(C(=O)O)C2)cc1 (centres unmarked) [CBK100948] | 78.3131 |
| COc1ccc(C(=O)COc2nc3c(C(F)(F)F)cc(C4CC4)nc3o2)cc1 [CBK269498] | 57.7223 |
| CC(C)C(=O)N[C@H]1C[C@@H](Cc2cc(CN3CCOCC3)on2)C1(C)C [CBK289248] | 100.655 |
| O=C(O)[C@H]1CCCN1Cc1cc(Cl)ccc1OCCCn1ccnc1 [CBK307436] | 28.443 |
| CCc1ccc(-c2ccc(-c3cc(C(=O)O)c4cc(Br)ccc4n3)o2)cc1 [CBK300543] | 48.1526 |
| COc1ccc(NC(=O)CC(CN(C)Cc2ccccc2)C(=O)O)cc1 (centres unmarked) [CBK286854] | 99.6212 |
| COc1ccc(CNC(=O)[C@H]2C=CCN2C(=O)c2cccs2)cc1 [CBK282325] | 95.5488 |
| CCOc1ccc(S(=O)(=O)N2CCC(C(=O)O)CC2)cc1Cl [CBK269759] | 89.1335 |
| O=C(O)c1ccccc1-c1ccc(-c2cc(C(=O)O)c3cc(F)ccc3n2)o1 [CBK269051] | 96.4866 |
| CCCCOc1nccnc1/C=C/c1ccccc1 [CBK106890] | 103.09 |
| Cc1cc(=O)[nH]c(SCC(=O)O)c1C#N [CBK019224] | 87.7269 |
| COC(=O)c1cccc(OCC(O)Cn2nc(C)c(C)c(C#N)c2=O)c1 (centres unmarked) [CBK305563] | 77.3018 |
| CCCCCCc1ccc(NS(=O)(=O)c2cc3c(NCCN(C)C)nccc3s2)cc1 [CBK038253C] | 77.4198 |
| CC(C)(C)C(=O)N1CC(n2nc(-c3ccccc3)ccc2=O)C1 [CBK284623] | 90.9091 |
| CCN(CC)CCSc1nc2sc3c(c2c(=O)n1-c1ccccc1)CC(C)(C)OC3 [CBK263728] | 74.2335 |
| Cc1ccc(C(C)(C)CC(C)NC2C3CC4CC(C3)CC2C4)o1 (centres unmarked) [CBK262871] | 117.627 |
| Cc1cc(C)n(CC(C)CNC(=O)CCCN(C)C)n1 (centres unmarked) [CBK304831] | 57.8669 |
| O=C(Nc1c(Cl)cccc1Cl)c1ccc(-c2ccccc2)cc1 [CBK262300] | 58.936 |

| SMILES | % of control remaining |
| --- | --- |
| Cc1nc2cc(OCc3nc(C(=O)N(C)CCN(C)C)co3)ccc2s1 [CBK306685] | 39.4756 |
| Cc1nc2c(OCc3ccc(F)c(F)c3)cccn2c1N(C)C(=O)CCC1CCCC1 [CBK147202] | 128.749 |
| OCCN1CCN(c2nc3ccccc3nc2-c2ccccc2)CC1 [CBK268799C] | 88.0101 |
| COc1cc(-c2noc(-c3cc(-c4ccccc4)n[nH]3)n2)cc(OC)c1OC [CBK287774] | 100.721 |
| NS(=O)(=O)c1cccc2c1CC1(CC2)OCCO1 [CBK010703] | 92.2642 |
| CC(C)c1cc(C(=O)N2CCOCC2)c(NC(=O)c2cc(-c3cccnc3)nc3ccc(Br)cc23)s1 [CBK267763] | 104.685 |
| O=C(c1ccc(-c2cncc(-c3ccc(Cl)s3)n2)cc1)N1CCOCC1 [CBK138517] | 99.1282 |
| O=c1[nH]nc2c(S(=O)(=O)N3CCOCC3)cccn12 [CBK288469] | 45.3223 |
| Cc1nn(CC(=O)N(C)CCn2ccnc2C)c(=O)c2ccccc12 [CBK306536] | 37.2423 |
| Nc1ncc(-c2ccoc2)nc1-c1ccc(C(=O)O)cc1 [CBK063972] | 72.7367 |
| COc1ccc(CCNC(=O)c2cccc(-c3ccc(OC4CCNCC4)cc3)n2)cc1OC [CBK126548T] | 71.4893 |
| O=C(c1ccccc1)c1ccc(NC(=O)c2ccccc2F)c(NC(=O)c2ccccc2F)c1 [CBK265183] | 60.5464 |
| CC(C)[C@H]1CN(Cc2ccccc2F)CCN1C(=O)Cn1ncc2ccccc2c1=O [CBK286172] | 120.611 |
| CC(C)Sc1nnc(N2C(N)=C(C#N)C(c3cccs3)C3=C2CCCC3=O)s1 (centres unmarked) [CBK293989] | 76.1535 |
| CC(C)(C)S(=O)(=O)Nc1nccnc1-c1ccc(OCc2ccccc2)cc1 [CBK050886] | 123.375 |
| CC(C)CN(Cc1ccc2c(c1)OCO2)C(=O)NCc1ccc(Cl)c(Cl)c1 [CBK159069] | 105.286 |
| CN1CCC(N2CCN(C(=O)c3cncc(-c4[nH]nnc4-c4ccccc4)c3)CC2)CC1 [CBK160327] | 86.5006 |
| CN(C)C(=O)c1ccc(Cn2nc(C(=O)NCCOc3ccccc3)c3ccccc32)cc1 [CBK047700] | 104.089 |
| O=C(O)CCC(C(=O)O)N1C(=O)c2c(Cl)c(Cl)c(Cl)c(Cl)c2C1=O (centres unmarked) [CBK264308] | 116.996 |
| Cc1ccc(C(=O)Nc2cccc(-c3cn4cccnc4n3)c2)cc1 [CBK287503] | 107.81 |
| CC(O)(CC(=O)O)C12CC3CC(CC(C3)C1)C2 (centres unmarked) [CBK261245] | 93.75 |
| COc1ccc2c(CN(C)Cc3cc(C)[nH]n3)cn(C)c2c1 [CBK281734] | 100.428 |
| CCOc1ccccc1NC(=O)CNS(=O)(=O)c1ccccc1 [CBK265860] | 134.728 |
| CCCCNC(=S)NC1CC[C@@]2(c3ccc(Br)cc3)CCN(C)[C@H]2C1 (some centres unmarked) [CBK003781] | 101.783 |
| COCCNC(=O)Cn1nnc(-c2ccc(OC)cc2)n1 [CBK069349] | 109.889 |
